Experimental data taken from PubChem BioAssay AID1347077 (National Center for Advancing Translational Sciences (NCATS), 2019).
The campaign covered roughly 44,000 compounds. Fewer than 10 were called active. Inconclusive results, whose numbers are uncertain, are shown with a selection of clear calls. Calls come from the whole dose curve; as a rule, active = well fitted activation curve with a large enough effect; inconclusive = small, poorly fitted or top-dose-only effect, or another doubt; inactive = no such curve, though single readings can be large or run the other way. Potencies of inconclusive entries are doubtful fits and often do not repeat.

target: Beta-2 adrenergic receptor (Homo sapiens) (UniProt P07550); test: qHTS assay of beta-arrestin-biased ligands of beta2-adrenergic receptor: NCGC Sytravon Library Screen; conditions: HTLA Tango cells, beta-arrestin recruitment, luciferase luminescence, 18 h; series mostly up to 46.1 µM; activation: at the top concentration;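 for activation: 0% = DMSO and full agonism = EC100 isoproterenol or metaproterenol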
Sequence of UniProt P07550 (P07550 whole entry, looked up): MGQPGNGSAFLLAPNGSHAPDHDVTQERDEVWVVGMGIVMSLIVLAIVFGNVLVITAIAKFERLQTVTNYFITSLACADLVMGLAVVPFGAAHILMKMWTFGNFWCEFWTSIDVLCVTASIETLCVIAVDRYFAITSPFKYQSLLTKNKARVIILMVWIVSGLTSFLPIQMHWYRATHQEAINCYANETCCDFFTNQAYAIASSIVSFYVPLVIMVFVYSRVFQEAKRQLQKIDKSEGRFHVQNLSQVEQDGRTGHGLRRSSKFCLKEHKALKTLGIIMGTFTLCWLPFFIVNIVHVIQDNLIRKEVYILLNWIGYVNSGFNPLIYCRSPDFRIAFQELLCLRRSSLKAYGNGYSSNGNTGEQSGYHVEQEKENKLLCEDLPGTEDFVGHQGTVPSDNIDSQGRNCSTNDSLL
How it was run: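 Luminescence read-out: arrestin recruitment to recombinant beta2-AR releases tTA, inducing luciferase. Cells exposed 18 hr at 37 degrees C to up to 46 microM compound; %Activity from corrected signal, concentration-response curves classified by r2, magnitude and efficacy.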
Potency is the fitted concentration of half-maximal effect; tags give direction and shape of the fitted curve.

activation, inactive:
Cc1cc2[nH]c(=O)c(=O)[nH]c2cc1S(=O)(=O)N1CCN(c2ccccc2F)CC1 -0.372%
O=C(Cn1c(=O)oc2cc(S(=O)(=O)NCc3ccccc3)ccc21)Nc1ccc(F)c(Cl)c1 -0.48%
COc1ccc(CCNC(=O)CCc2c(C)nc3cc(-c4cccc(F)c4)nn3c2C)cc1OC -0.49%
O=C(Cn1cc(S(=O)(=O)Cc2cccc(Cl)c2)c2ccccc21)Nc1ccccc1C(F)(F)F 2.48%
COc1ccc(-c2cc(C(C)=O)c(C)n2CCC(=O)Nc2ccc(C)cc2Cl)cc1 -0.424%
O=C(Nc1ccc(Br)cc1)c1ccc(F)c(S(=O)(=O)N2CCCc3ccccc32)c1 -0.674%
COc1ccc(OC)c(CNS(=O)(=O)c2ccc3[nH]c4c(c3c2)CCCCC4)c1 0.172%
Cc1cc(C)c(NS(=O)(=O)c2ccc3c(c2)NC(=O)CCS3)c(C)c1 -0.761%
CCOc1ccc(CNCc2c(C(=O)O)c(C)n(Cc3ccc(C)cc3)c2C)cc1 -3.14%
Cc1cc(F)ccc1NC(=O)CCS(=O)(=O)c1ccc2c(c1)CC(C)N2C(=O)C1CC1 (centres undefined) -0.383%
Cc1ccc(Cl)cc1-n1ncc2c(NCCCc3ccccc3)ncnc21 -1.81%
CCS(=O)(=O)N1CCc2cc(C(=O)Nc3ccc(Br)cc3F)ccc21 -2.73%
O=C(Nc1ccc(-c2cn3cccnc3n2)cc1)c1cc(Br)ccc1Cl 0.211%
COc1ccccc1-c1nnc(SCC(=O)c2ccc(Cl)cc2)n1-c1ccccc1 -1.19%
CCOC(=O)c1ccc(N2C(=O)c3n[nH]c(-c4ccco4)c3C2c2ccc(OCC)cc2)cc1 (centres undefined) 0.783%
COC(=O)CC1Oc2ccccc2-n2cc(-c3ccccc3)nc21 (centres undefined) 0.516%

Potency, inconclusive:
CCCNC(=O)c1cnn2c(C(F)F)cc(-c3ccccc3)nc12 17.8 µM [activator, partial curve, poor fit]
CCCOc1ccc(CNC(=O)c2ccc(-n3c(C)cc4c3CCC(C)C4)cc2)cc1 (centres undefined) 28.2 µM [activator, single point]
Cc1ccc(Cn2ccnc2SCC(=O)Nc2ccc3c(c2)OCO3)cc1 0.316 µM [activator, partial curve, poor fit]
CCN(C(=O)CN1C(=O)c2ccccc2Sc2ccc(C(=O)OC)cc21)c1cccc(C)c1 10 µM [activator, partial curve]
CCCCCN1C(C(=O)c2ccccc2)=C(OC(=O)CC)c2ccccc2S1(=O)=O 35.5 µM [activator, single point]
CCOc1ccc(CCNC(=O)c2ccc(-n3c(C)cc4c3CCCC4)cc2)cc1OCC 35.5 µM [activator, single point]
COc1ccccc1CNC(=O)CSc1nc(-c2ccc(OC)c(OC)c2)cc(C(F)(F)F)n1 31.6 µM [activator, single point]
CCc1ccc(NC(=O)CC2C(=O)N(c3ccc(OC)cc3)C(=O)N2Cc2ccc(OC)cc2)cc1 (centres undefined) 11.2 µM [activator, partial curve]
Cc1ccc2nc(-c3ccc(Cl)c(NC(=O)COc4ccc([N+](=O)[O-])cc4)c3)oc2c1 39.8 µM [activator, partial curve, poor fit]
CCOC(=O)c1ccc(NC(=O)C(CC)Sc2nnc3c4ccccc4n(C)c3n2)cc1 (centres undefined) 12.6 µM [activator, partial curve, poor fit]
Cc1cccc(C(=O)N2CCc3cc(CNC(=O)c4ccc(Br)o4)ccc32)c1 15.8 µM [activator, single point]
CCS(=O)(=O)c1ccc(O)c(Nc2cc(C)nc(SC)n2)c1 15.8 µM [activator, partial curve, poor fit]
COc1ccc(NC(=O)C2=C(C)Nc3ncnn3C2c2ccc(C)o2)cc1 (centres undefined) 35.5 µM [activator, partial curve, poor fit]
COc1ccc(C2=NN(S(C)(=O)=O)C(c3cn(-c4ccccc4)nc3-c3cccs3)C2)cc1 (centres undefined) 31.6 µM [activator, partial curve, poor fit]
CCOc1ccc(C2N3CC4(C(C)C)CN2CC(C(C)C)(C3)C4=O)cc1OC (centres undefined) 35.5 µM [activator, partial curve, poor fit]
Cc1cc(C)c(NC(=O)CCN2C(=O)c3ccccc3Sc3ncccc32)c(C)c1 20 µM [activator, partial curve, poor fit]
CCN(CC)CCCNC(=O)Cn1ncc2c3ccccc3n(Cc3ccccc3)c2c1=O 35.5 µM [activator, partial curve, poor fit]
COc1cccc(Nc2sc(C(=O)c3ccc4c(c3)OCO4)c(N)c2S(=O)(=O)c2ccccc2)c1 4.47 µM [activator, partial curve, poor fit]
COc1ccc(-n2c(=O)c3c4c(sc3n(CC(=O)N3CCCCC3C)c2=O)CCC4)c(OC)c1 (centres undefined) 17.8 µM [activator, single point]
COc1cc(C2c3c(-c4ccccc4O)n[nH]c3C(=O)N2Cc2ccncc2)cc(OC)c1OC (centres undefined) 35.5 µM [activator, single point]
CCCCN1C(C(=O)c2ccccc2)=C(OC(=O)CC)c2ccccc2S1(=O)=O 20 µM [activator, single point]
O=c1c2sc3ccccc3c2n(Cc2cccc(Cl)c2)c(=O)n1Cc1ccc(F)cc1 35.5 µM [activator, partial curve, poor fit]
CCCCN(C)C(=O)CN1C(=O)c2cccnc2Oc2ccc(Cl)cc21 31.6 µM [activator, partial curve, poor fit]
COc1cc(NC(=O)CCS(=O)(=O)c2ccc(Br)cc2)cc(OC)c1 3.98 µM [activator, partial curve, poor fit]
COCc1cc(C)nc2sc3c(c12)NC(c1ccc(O)c(OC)c1)N(c1ccccc1)C3=O (centres undefined) 20 µM [activator, partial curve, poor fit]
CC(=O)Nc1ccc(NC(=O)CCCn2nc(C)c3sc4ccccc4c3c2=O)cc1 20 µM [activator, single point]
CCCCC(=O)OC1=C(C(=O)c2ccccc2)N(CCC)S(=O)(=O)c2ccccc21 35.5 µM [activator, partial curve, poor fit]
Cc1ccc(C(=O)Nc2cc3c(cc2C)n(C)c(=O)c(=O)n3C)cc1 15.8 µM [activator, single point]
Cc1cccc(NC(=O)N2CCC3(CC2)Oc2ccccc2C(=O)N3Cc2ccccc2F)c1C 31.6 µM [activator, partial curve, poor fit]
CCCCNC(=O)c1c(C)oc2ncn(CC(C)C)c(=O)c12 35.5 µM [activator, partial curve, poor fit]
COc1cccc(NC(=O)Cn2c(=O)n(-c3ccc(Cl)cc3)c(=O)c3sc4ccccc4c32)c1 5.01 µM [activator, full curve]
CCCc1nn2c(=O)cc(COC(=O)c3ccccc3NC(=O)c3ccc(Cl)cc3)nc2s1 20 µM [activator, partial curve, poor fit]
CCOc1ccc(NC(=O)CSc2nc3c(oc4ccccc43)c(=O)n2-c2ccccc2C)cc1 35.5 µM [activator, single point]
CCCCN(CC)C(=O)CSc1nc2ccccc2c(=O)n1Cc1ccco1 15.8 µM [activator, partial curve, poor fit]
CCOc1ccc(-c2nc(CSCC(=O)NCCc3ccccc3)c(C)o2)cc1 20 µM [activator, single point]
COC(=O)c1c(C)sc(-c2c(-c3ccc4c(c3)OCCO4)[nH]c3c2c(=O)[nH]c(=O)n3C)c1O 35.5 µM [activator, partial curve, poor fit]
COc1cccc(NC(=O)C(=O)NCC(c2ccc3c(c2)OCO3)N2CCN(C)CC2)c1 (centres undefined) 31.6 µM [activator, partial curve, poor fit]
COc1ccc(-n2nc(C(=O)N3CCCC(C)C3)c3c4ccccc4n(C)c3c2=O)cc1Cl (centres undefined) 35.5 µM [activator, single point]
CCOc1ccc(CCNC(=O)CCc2c(C)nc3c(-c4ccccc4)c(C)nn3c2C)cc1OCC 35.5 µM [activator, single point]
Cc1ccc(Nc2c(-c3ccc(N(C)C)cc3)nc3nc[nH]n23)cc1 3.16 µM [activator, full curve, poor fit]
CCOC(=O)c1cc(C)n(CC2CCC(C(=O)Nc3ccc(C(C)=O)cc3)CC2)c1C (centres undefined) 35.5 µM [activator, single point]
COCCNC(=O)CSc1nc(-c2cc(OC)c(OC)c(OC)c2)[nH]c1-c1ccc(Cl)cc1 35.5 µM [activator, partial curve, poor fit]
Cc1ccc2c(CC(=O)Nc3c(C(=O)c4ccc(C)c(F)c4)oc4ccccc34)coc2c1 35.5 µM [activator, partial curve, poor fit]
